# Measurements from PubChem BioAssay AID1240 (Sanford-Burnham Center for Chemical Genomics, 2008).
# About 800 (1.6%) of roughly 50,000 compounds showed an effect of 50% or more. The list shows a part of the results.
# Target: Bcl-2-like protein 10 (Homo sapiens) (UniProt Q9HD36)
# Experiment: TR3 peptide-Bcl-B binding displacers, biochemical primary FP assay, phenotype converters (AID 1240);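 further: 0% = Bcl-B with tracer peptide and DMSO and 100% = tracer peptide lacking Bcl-B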
# Conditions: GST-Bcl-B / FITC-TR3 peptide fluorescence polarization; stronger effect = higher value; compound at 3.75 mg/L
# UniProt Q9HD36, sequence (Q9HD36 whole entry, looked up): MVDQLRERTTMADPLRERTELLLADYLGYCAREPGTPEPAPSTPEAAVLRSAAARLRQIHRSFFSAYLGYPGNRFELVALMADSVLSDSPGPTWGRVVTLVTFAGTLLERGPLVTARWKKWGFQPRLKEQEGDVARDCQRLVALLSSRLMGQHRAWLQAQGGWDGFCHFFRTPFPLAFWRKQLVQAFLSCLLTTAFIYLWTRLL
row,Compound,displacement [%]
1,COc1cc(N=Cc2c(O)n(-c3ccc(Cl)cc3)c(=O)[nH]c2=O)cc(OC)c1,70.5
2,O=C(NC1CCCCC1)C1CC2c3ccccc3C1c1ccccc12 (stereo not given),-5.2
3,COc1ccc(C(=O)N2CCN(C(=O)c3ccncc3)CC2)cc1,18.7
4,COCCOC(=O)c1c(C)oc2ccc(OCc3cccc(Br)c3)cc12,9.3
5,COc1ccc(N(CC(=O)NCc2ccco2)S(=O)(=O)c2ccccc2)cc1Cl,5.3
6,NC(=O)c1ccc(NC(=O)c2ccccc2C(=O)O)cc1,1.8
7,CCC1CCc2c(sc(NC(=O)c3cccs3)c2C(N)=O)C1 (stereo not given),-7.2
8,CN1CCN(CN2C(=O)C(=O)c3ccccc32)CC1,-3
9,O=C1NC(=Nc2ccccc2)S/C1=C/c1cccc(C(F)(F)F)c1,-12.5
10,CCN(CC)S(=O)(=O)c1cc(C(=O)Nc2cccc(C(=O)O)c2)ccc1Cl,-5.2
11,COC(=O)C1=C(C(=O)OC)SC(=C2C(=S)C(C)(C)N(C(=O)c3cccc(F)c3)c3ccc(OC)cc32)S1,-7.9
12,CCC(=O)Oc1ccc2c(C)c(CC)c(=O)oc2c1C,4.6
13,Cc1nc2cc(-c3ccccc3Cl)[nH]n2c(=O)c1Cl,11.8
14,CC1=C(C(=O)OCC2CCCO2)C(c2ccccc2Cl)NC(=O)N1 (stereo not given),10.5
15,Cn1cc(/C=C/c2nc3ccccc3c(=O)n2Cc2ccccc2)c2ccccc21,136
16,CCC(=O)NC(Nc1ccc(OC)cc1)(C(F)(F)F)C(F)(F)F,-2.7
17,COc1ccccc1OCCOc1c(I)cc(/C=C2/SC(=S)N(C)C2=O)cc1OC,1.9
18,O=C1CC(Cc2ccc(Cl)cc2)C(=O)N1c1ccc2ccccc2n1 (stereo not given),2.3
19,CCc1c(C)nn2cn[n+](Cc3ccccc3Cl)c2c1[O-],8.6
20,COc1ccc(/C=C/C(=O)Nc2ccc(F)cc2)cc1Br,7.8
21,O=C1C=CC(=O)C(c2cccc(Cl)c2)=C1,23.9
22,COc1cc(/C=N/N2CCN(Cc3cccc4ccccc34)CC2)cc(Br)c1O,19

row,Compound,displacement [%]
1,O=c1c(F)cn(Cc2ccccc2)c(=O)n1Cc1ccccc1,-4.3
2,CC(C)CNC(=O)c1cccc(NC(=O)c2ccccc2Cl)c1,2.7
3,O=C(N/C(=C/c1cccs1)C(=O)N1CCOCC1)c1ccccc1,8
4,COCCCNS(=O)(=O)c1cc(Cl)ccc1Cl,-7.2
5,CCN(CC)CC(O)Cn1c2c(c3cc(C)ccc31)CCCC2=O (stereo not given),-6.4
6,O=C(N/N=C/c1ccccc1C(F)(F)F)c1ccc(CN2CCOCC2)cc1,0.7
7,COc1ccc(CNC(=O)c2ccccc2Br)cc1,-7.1
8,COc1ccc(Cl)cc1NC(=O)C1=C(C)NC(=S)NC1c1cccs1 (stereo not given),-9.7
9,Cc1nn(CC(=O)Nc2c(C)n(C)n(-c3ccccc3)c2=O)c(C)c1[N+](=O)[O-],0.3
10,O=C(Nc1ccc2c(c1)OCO2)c1ccco1,0.6
11,Cc1cccc(C2(c3cccc(C)c3)CC2C(=O)NC(C)(C)C)c1 (stereo not given),-4.5
12,O=C(CSc1nnc(-c2ccc3c(c2)OCO3)n1-c1ccccc1)c1ccccc1,1.9
13,CCOc1ccccc1NC(=O)c1c(NC(=O)Cc2ccccc2)sc2c1CCCCC2,4.5
14,Cc1ccc(COc2ccccc2C=C2C(=O)NC(=S)NC2=O)cc1,7.9
15,CCOC(=O)c1oc2cc(-c3ccccc3)cc(O)c2c1C,-6.1
16,Cc1ccc(C(=O)O/N=C(\N)c2ccc(Br)cc2)cc1,-13
17,CCCCCCCN(C(=S)Nc1ccc(F)cc1)C1CC(=O)N(c2ccc(OCCC)cc2)C1=O (stereo not given),-1.5
18,COc1ccc(C2N(Cc3ccccc3)CCN2Cc2ccccc2)cc1OC,14.4
19,COc1ccc(OC)c(/C=C/c2[nH]c(=O)[nH]c(=O)c2[N+](=O)[O-])c1,13.1
20,O=C(Nc1ccc(S(=O)(=O)Nc2nccs2)cc1)c1cncc(Br)c1,17.4
21,COc1ccc(CCN2C(=O)CC(N3CCN(c4ccccn4)CC3)C2=O)cc1OC (stereo not given),-16.1
22,CC(C)(CO)N=Cc1ccc(Cl)cc1,5.6

row,Compound,displacement [%]
1,CCOC(=O)c1ccc(NC(=S)NC(NC(=O)Cc2ccccc2)C(Cl)(Cl)Cl)cc1 (stereo not given),-15.3
2,O=C(Nc1ccc2c(c1)OCCO2)c1ccc([N+](=O)[O-])cc1,0.7
3,COc1ccc(C(=O)Nc2ccc(C(=O)N3CCOCC3)cc2)cc1OC,1.7
4,Cc1ccc(C(=O)O)cc1NC(=O)CN1C(=O)c2ccccc2C1=O,0.1
5,CCOc1ccc(C(=O)Nc2ccc(Br)cn2)cc1Cl,0.3
6,COc1ccc(-c2ccc(/C=C/C(=O)c3cc4ccccc4o3)o2)cc1,-52.6
7,CCOc1ccc(C(=O)Nc2nnc(SCC)s2)cc1,16.4
8,COc1ccc(C2C(C(=O)c3cccs3)=C(O)C(=O)N2c2nncs2)cc1 (stereo not given),143
9,CC(=O)Oc1ccc2oc(C)c(C(C)=O)c2c1,16.5
10,Cc1occc1C(=O)NNC(=O)c1ccccc1F,-11.5
11,Cc1cc(C)c2oc(-c3cccc(NC(=S)NC(=O)c4ccco4)c3)nc2c1,12.1
12,O=C(O)CCC(=O)Nc1cccc(-c2nc3cc4ccccc4cc3[nH]2)c1,-8.3
13,COc1ccc(C(=O)N2CCN(C(=O)CC(C)C)CC2)cc1OC,-11.1
14,CCN(CC)c1ccc(/C=C2\SC(=S)N(Cc3ccco3)C2=O)cc1,-82.1
15,O=C(Nc1ccc(F)cc1)C1CC(=O)N(c2ccc(Cl)cc2)C1 (stereo not given),6.1
16,C=C(C)Cn1c(SCC(=O)c2ccc(OC)cc2)nnc1-c1ccco1,5.7
17,COc1ccc(S(=O)(=O)n2cccc2)cc1,2.5
18,CC(C)COC(=O)c1ccc(NC(=O)c2ccc(Cl)c(Cl)c2)cc1,4.3
19,CC(=O)Nc1ccc(NC(=O)CCC(=O)NCCO)cc1,-6.2
20,COc1ccc(NC(=O)C2COc3ccccc3O2)c(OC)c1 (stereo not given),-8.1
21,Cc1cc(C(=O)Nc2ccccc2C(=O)O)c(C)o1,-2.4
22,COC(=O)c1cc(NC(=O)c2ccc3c(c2)OCO3)cc(C(=O)OC)c1,13.8

row,Compound,displacement [%]
1,COc1cc(-c2csc(N)n2)ccc1O,15.6
2,COc1ccc(OC)c(/C=N/NC(=O)C(=O)Nc2ccc(OC)cc2OC)c1,2.1
3,COc1ccccc1C(=O)NC(NC(=O)c1ccccc1OC)c1cccc([N+](=O)[O-])c1,7.1
4,COc1ccc(C2(CNC(=O)c3cc4ccccc4o3)CCOCC2)cc1OC,-6.6
5,COc1ccc(C(=O)N/N=C/c2ccc(Sc3nnnn3-c3ccccc3)o2)cc1OC,-8.7
6,COc1ccc(OCC(=O)N2CCN(c3ccccn3)CC2)cc1,0.3
7,C/C=C/COC(=O)C1=C(C)NC(=O)NC1c1ccc(Cl)cc1Cl (stereo not given),7.8
8,CC1=C(C(=O)Nc2cccc(Cl)c2C)C(c2cccs2)NC(=O)N1 (stereo not given),12.6
9,Cc1cc(C)c(NC(=O)c2cccs2)c(C)c1NC(=O)c1cccs1,-3.3
10,O=C(O)C1C2C=CC(C3CC23)C1C(=O)NCc1ccccc1 (stereo not given),-10.4
11,O=C(CSc1nnnn1-c1ccccc1)Nc1cccc(C(F)(F)F)c1,9.8
12,Cc1ccc(N2C(=O)/C(=C/c3ccc(OCC(=O)O)c(Br)c3)C(=O)NC2=S)cc1,-33.2
13,N/C(=C/C(=O)c1cccs1)C(F)(F)C(F)F,-2.8
14,Oc1cc(N=C/C=C/c2ccc(Cl)cc2)ccc1-c1nc2ccccc2o1,5.3
15,O=C1/C(=C/c2ccc(-c3ccc(Cl)cc3C(=O)O)o2)Sc2ccccc21,-64.9
16,Cc1cc(Cl)ccc1NC(=O)CCC(=O)N/N=C/c1cccnc1,8
17,COC(=O)COc1ccc(/C=C2\C(=O)NC(=S)N(c3ccc(OC)cc3)C2=O)cc1OC,-10.2
18,Cc1cccc(NC(=O)CSc2nc3ccc([N+](=O)[O-])cc3s2)c1C,-11.3
19,CC(=O)Nc1ccc(C(=O)Nc2ccc(C(C)C)cc2)cc1,-8.6
20,C/C(=C1/C(=O)N(c2nc3ccccc3s2)N=C1C(F)(F)F)N1CCC2CCCN2C1 (stereo not given),-11.6
21,COc1ccccc1CC(=O)Nc1ccc(C)c(Cl)c1,7
22,Cc1ccc(N=Cc2ccc(C)o2)c(O)c1,-10.4

row,Compound,displacement [%]
1,CCOC(=O)c1[nH]c(C)c(C(=O)CC(C)(C)C)c1C,-2.9
2,COc1ccc2nc(NS(=O)(=O)c3ccc(Cl)cc3)c(Nc3ccc(NC(C)=O)cc3)nc2c1,12.1
3,O=C(CSc1nnc(CCCN2C(=O)c3cccc4cccc(c34)C2=O)n1-c1ccccc1)NCc1ccccn1,3.7
4,Cc1ccc(N2CCN(CC(O)Cn3c4ccccc4c4ccccc43)CC2)cc1 (stereo not given),8.8
5,C(=N\Nc1nc(N2CCOCC2)nc(N2CCOCC2)n1)/c1ccc2c(c1)OCO2,2.4
6,CCC(=O)Nc1sc2c(c1C(=O)Nc1cccc3ccccc13)CCCCC2,8
7,Cc1nc2c([N+](=O)[O-])cc(Br)cc2c(=O)[nH]1,30
8,COc1ccccc1NC(=O)c1ccc(C)o1,12.3
9,Cc1ccc(-c2csc(NC(=O)c3ccc(Cl)cc3)n2)cc1,10.4
10,C=CCOc1ccc2c(C)c(CC)c(=O)oc2c1C,-14.5
11,CC(C)(C)C1CCC(C(=O)N/N=C/c2cc([N+](=O)[O-])ccc2O)CC1 (stereo not given),10.8
12,COc1ccc(/C=c2\sc3nc4c(C)c(C)ccc4n3c2=O)cc1,-1.4
13,C(=N\Nc1ncc(-c2cccs2)s1)/c1ccccc1,-7.2
14,CCc1ccc(N2CC(C(=O)N/N=C/c3ccc(C(=O)OC)cc3)CC2=O)cc1 (stereo not given),-4.9
15,CCc1ccc(O)c(N=Cc2ccccc2O)c1,-2.1
16,Cc1ccc(C2C3=C(CC(C)(C)CC3=O)OC3=C2C(=O)CC(C)(C)C3)o1,9.6
17,CCOc1ccc(N(CC(=O)Nc2cccc(C(C)=O)c2)S(C)(=O)=O)cc1,5.2
18,CCOc1ccc(C(=O)Nc2cccc3nsnc23)cc1Cl,30.9
19,NC(=O)c1c(NC(=O)C23CC4CC(CC(C4)C2)C3)sc2c1CCCCCC2,-4
20,COC(=O)c1ccc(CSc2nnc(CCCN3C(=O)c4cccc5cccc(c45)C3=O)n2-c2ccccc2)cc1,-10.3
21,Cc1ccc2nc(SCCOc3ccccc3)[nH]c2c1,0.6
22,O=C(c1cccc(Br)c1)N1N=C(C(F)(F)F)CC1(O)c1ccc(Cl)cc1 (stereo not given),1.2
